# Measurements reported in publication PMC4336329 (PLoS ONE, 2015).
# In all, about 310,000 compounds went through this assay and about 2,200 (0.71%) showed an effect of 50% or more. Effects have a minus sign here. This is one part of the list.
# Biological target: human ether-à-go-go-related gene (hERG) potassium channel (human, UniProt Q12809)
# Assay: primary screen, population patch clamp on CHO cells stably expressing hERG
# Sequence of human ether-à-go-go-related gene (hERG) potassium channel (Q12809 whole entry, looked up): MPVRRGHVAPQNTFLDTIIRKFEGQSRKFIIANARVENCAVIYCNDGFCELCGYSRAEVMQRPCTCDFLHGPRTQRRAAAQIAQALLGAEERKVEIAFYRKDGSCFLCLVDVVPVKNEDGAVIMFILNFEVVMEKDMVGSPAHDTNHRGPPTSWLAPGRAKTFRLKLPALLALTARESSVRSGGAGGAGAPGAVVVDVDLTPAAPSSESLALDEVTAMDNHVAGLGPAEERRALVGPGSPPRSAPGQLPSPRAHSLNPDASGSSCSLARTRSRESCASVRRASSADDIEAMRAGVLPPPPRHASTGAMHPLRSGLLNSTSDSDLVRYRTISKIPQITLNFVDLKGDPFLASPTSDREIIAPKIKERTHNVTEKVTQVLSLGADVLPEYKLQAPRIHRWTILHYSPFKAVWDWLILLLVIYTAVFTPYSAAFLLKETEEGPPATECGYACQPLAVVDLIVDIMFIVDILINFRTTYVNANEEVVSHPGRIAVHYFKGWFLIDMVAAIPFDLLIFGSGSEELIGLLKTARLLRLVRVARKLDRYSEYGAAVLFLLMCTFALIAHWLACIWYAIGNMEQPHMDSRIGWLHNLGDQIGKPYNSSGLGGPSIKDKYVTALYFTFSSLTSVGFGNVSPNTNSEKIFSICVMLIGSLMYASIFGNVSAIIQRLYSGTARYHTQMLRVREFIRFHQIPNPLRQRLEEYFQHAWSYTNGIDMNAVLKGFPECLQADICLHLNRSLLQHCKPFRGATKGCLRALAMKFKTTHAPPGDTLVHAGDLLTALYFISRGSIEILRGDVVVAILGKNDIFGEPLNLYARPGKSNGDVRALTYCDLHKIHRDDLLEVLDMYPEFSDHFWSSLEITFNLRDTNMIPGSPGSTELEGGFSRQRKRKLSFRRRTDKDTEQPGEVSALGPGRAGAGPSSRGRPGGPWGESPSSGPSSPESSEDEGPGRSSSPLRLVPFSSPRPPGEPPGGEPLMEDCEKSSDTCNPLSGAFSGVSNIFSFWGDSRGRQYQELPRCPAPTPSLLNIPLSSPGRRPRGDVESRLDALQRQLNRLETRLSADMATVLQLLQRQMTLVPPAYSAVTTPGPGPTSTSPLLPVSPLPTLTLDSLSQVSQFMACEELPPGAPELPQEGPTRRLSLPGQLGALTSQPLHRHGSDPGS
row,SMILES,"hERG current change (%, negative = inhibition) at 1uM"
1,O=C(COC(=O)CNC(=O)c1ccco1)Nc1ncc(Cl)cc1Cl,13.9%
2,COc1ccc(NC(=O)NC(=O)c2ccccc2)cc1,12.5%
3,Cc1cc(NS(=O)(=O)c2ccc(NC(=O)c3cccc(OC(F)F)c3)cc2)nc(C)n1,10.7%
4,COc1ccc(NC(=O)CN(C)C(=O)c2cccc(S(=O)(=O)N3CCN(Cc4ccccc4)CC3)c2)cc1,1.95%
5,COc1ccc(S(=O)(=O)c2nnn(-c3ccccc3Cl)c2N)cc1,-1.14%
6,Cc1cccc(N2CCN(C(=O)Cc3ccccc3[N+](=O)[O-])CC2)c1C,9.77%
7,N#C/C(=C\c1ccccc1C(F)(F)F)C(=O)Nc1ccccc1,0.849%
8,Cc1ccccc1NC(=O)NNC(=O)OC(C)(C)C,-0.145%
9,CC(NC(=O)CCc1nnc(C2CCCCC2)o1)c1ccc(F)cc1 (centres unmarked),8.55%
10,CCOC(=O)/C=C/COc1ccccc1[N+](=O)[O-],6.93%
11,CC(=O)c1cccc(N2C(=O)C3C(C(=O)Nc4cc(C)on4)C4(C)C=CC3(O4)C2C(=O)NC(C)(C)C)c1 (centres unmarked),11.4%
12,COc1ccc(S(=O)(=O)NNC(=O)Nc2ccc(C)cc2)c(OC)c1,7.16%
13,COc1ccc(CCNc2nc(-c3ccc(O)cc3)cs2)cc1OC,7.6%
14,Cc1cc(C)n(-c2ccc(C(=O)OCc3nnc(-c4ccccc4)o3)cc2)n1,11.1%
15,O=C(NCc1ccncc1)C1COc2ccccc2O1 (centres unmarked),-5.57%
16,O=C(Cc1ccc(F)cc1)Nc1nnc(-c2ccc(F)cc2)o1,9%
17,COC(=O)CCN(C(=O)c1cccc([N+](=O)[O-])c1)c1ccccn1,5.49%
18,COc1ccc(S(=O)(=O)NCC2CCCO2)cc1NC(=O)c1ccc(Cl)cc1 (centres unmarked),-6.75%
19,CCOC(=O)CN(c1cc([N+](=O)[O-])ccc1OC)S(C)(=O)=O,23.9%

row,SMILES,"hERG current change (%, negative = inhibition) at 1uM"
1,CCN(CC)CCNc1nc(-c2cccs2)c(CC(=O)O)s1.O=C(O)C(=O)O,2.43%
2,COCCN(CC(=O)Nc1cc(Cl)ccc1-n1cncn1)Cc1nc2ccccc2c(=O)[nH]1,-12%
3,COc1ccc(C)cc1N(CC(=O)N1CCOCC1)S(C)(=O)=O,15.9%
4,CC(/C=C/c1ccco1)=N\NC(=O)COc1ccc(C)c(C)c1,-3.38%
5,CCOC(=O)C1CCN(S(=O)(=O)c2ccc3c(c2)CC(=O)N3)CC1,-1.04%
6,COCc1nnc(SCC(=O)NCc2ccccc2)n1-c1ccccc1,3.79%
7,COc1cccc(CNC(=O)CSc2ccc(-c3ccco3)nn2)c1,8.75%
8,[O-]/C(=C(\C(=S)NCCN1CCOCC1)[n+]1ccccc1)c1ccc(Cl)s1,10.4%
9,NS(=O)(=O)c1ccc(-n2nc(C(=O)O)cc2-c2ccc(Cl)cc2)cc1,14.9%
10,COc1ccc(C)cc1N(CC(=O)N/N=C/c1ccccc1C(=O)O)S(=O)(=O)c1ccccc1,21.4%
11,O=C1N(c2ccc(Cl)cc2)C(c2ccccc2)N2CCCN12 (centres unmarked),22.3%
12,Cc1cc(CSc2ccccc2)ccc1NC(=O)c1cccc([N+](=O)[O-])c1,6.04%
13,COc1ccc(CNC(=O)c2ccc3c(=O)n(CCCN4CCCC4=O)c(=S)[nH]c3c2)cc1,14.7%
14,Cc1ccccc1Cn1cccc1/C=C1/C(=N)N2C=CSC2=NC1=O,16.6%
15,COc1ccc(N2CCN(CC(=O)NCc3ccccc3)CC2)cc1,7.53%
16,CC(=O)Nc1ccc(C(=O)COC(=O)CCS(=O)(=O)c2ccccc2)cc1,16.8%
17,Cc1ccc(C(=O)NCC(=O)OCC(=O)NCCc2ccccc2)s1,14.6%
18,CCCOc1ccc(CNC(=O)Cn2c(=O)oc3ccccc32)cc1,6.29%
19,CC(C)CC(OC(=O)c1ccco1)C(=O)NC1CCCC1 (centres unmarked),5.05%

row,SMILES,"hERG current change (%, negative = inhibition) at 1uM"
1,N#Cc1c(-n2cccc2)cccc1-n1cccc1,11.5%
2,CCOC(CNC(=O)C(=O)Nc1cc2c3c(c1)CCC(=O)N3CCC2)OCC,12.2%
3,Cc1cc(NC(=O)C2CC(=O)N(c3cccc(Cl)c3)C2)no1 (centres unmarked),-2.74%
4,O=C(CCN1C(=O)/C(=C/c2ccc(F)cc2)SC1=S)NCCCn1ccnc1,-18.5%
5,COc1cc(/C=N/n2c(C)n[nH]c2=S)ccc1OCc1ccccc1,10.3%
6,CC1CC(C)CN(C(=O)C2CCC(CNc3c(N4CCCCC4)c(=O)c3=O)CC2)C1 (centres unmarked),12.9%
7,COc1ccc(N(C)S(=O)(=O)c2c(C)noc2C)c(OC)c1,13.9%
8,Cc1nc(-c2nc(-c3c(C(=O)NNC(=O)c4ccc(Cl)cc4)noc3C)cs2)cs1,30.7%
9,CCN1/C(=C2\OC(=S)N(C)C2=O)Sc2ccccc21,6.51%
10,COc1ccccc1/C=C/C(=O)OCC(=O)NCc1ccco1,6.72%
11,O=C(Nn1cnc2ccccc2c1=O)c1c(F)cccc1F,24.8%
12,CC1(C)CC(=O)C2=C(C1)N(c1cccnc1)C(N)=C(C#N)C2c1cccs1 (centres unmarked),14.9%
13,COc1cccc2c(=O)n(CC(=O)N3CCC(C)CC3)ccc12,1.7%
14,CCOC(=O)C1(CCCc2ccccc2)CCN(Cc2cnc(C)s2)CC1,-44.7%
15,Cc1ccc(C)c(-n2cc(CNCCCn3cccn3)c(-c3ccccc3)n2)c1,-20.1%
16,CCOC(=O)c1cc2c(=O)[nH]ccc2nc1C,10.5%
17,O=C(NNC(=O)c1ccccc1F)c1ccc(-c2ccc(Cl)cc2)o1,2.14%
18,Cn1c(CNC2CCCCC2)c(C#N)c2ccccc21,5.23%
